Measured values reported in the supplement of paper PMC8183993.
Values joined by “and” are separate entries in the source; they are usually repeats but may differ in a detail not shown here. Equal values may be shown once. Where a name gives a salt, the structure may show the parent alone. ± gives the standard deviation of the averaged measurements. In all, about 3,100 compounds were measured (“mean cytoplasmic OPP incorporation (global translation) relative to DMSO”: median about 100, lowest 2% from about 56 on). The list shows a part of the results.

test system: U2OS; assay: mean cytoplasmic OPP incorporation (global translation) relative to DMSO (% of DMSO); higher = more protein synthesis; settings: 10 µM; 24 h
Protocol: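 Primary image-based screen in U2OS cells: compounds at 10 uM for 24 h, then a 1 h o-propargyl-puromycin (OPP) pulse, click labelling, and high-throughput microscopy. Mean cytoplasmic OPP intensity and nuclei count were normalised to DMSO wells within each plate (DMSO = 100) and averaged over triplicate plates.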

| SMILES | mean cytoplasmic OPP incorporation |
| --- | --- |
| CCN1CCN(Cc2ccc(Nc3ncc(F)c(-c4cc(F)c5nc(C)n(C(C)C)c5c4)n3)nc2)CC1 | 70.5 |
| COc1ccc(C(=O)c2ccccc2O)c(O)c1 [Dioxybenzone] | 102 |
| CC(C)(C)NC[C@H](O)COc1ccccc1C1CCCC1 [Penbutolol sulfate] | 102 |
| COc1ccc2cccc(N3CCN(CCNC(=O)c4ccc(F)cc4)CC3)c2c1 | 107 |
| O=C(O)[C@H]1/C(=C/CO)O[C@@H]2CC(=O)N21 [Clavulanate potassium salt] | 106 |
| O=C(OCCOCCO)c1ccccc1Nc1cccc(C(F)(F)F)c1 [Etofenamate] | 103 |
| O=C(O)C1(C(=O)O)CCC1.[NH2-].[NH2-].[Pt+2] [Carboplatin] | 104 |
| COc1ccc(CC(=O)NC(/N=C(\NC#N)Nc2cccc3ncccc23)C(C)(C)C)cc1OC (stereo not drawn) | 115 |
| O=c1c(O)c(-c2ccc(O)c(O)c2)oc2cc(O)cc(O)c12 [Quercetin (Sophoretin)] | 102 |
| O=c1c(O)c(-c2ccc(O)c(O)c2)oc2cc(O)cc(O)c12 [Quercetin] | 104 ± 9.1 |
| O=C(Nc1ccc([N+](=O)[O-])cc1O)Nc1ccccc1Br | 95.7 |
| Cc1cnc(C(=O)O)c[n+]1[O-] [Acipimox] | 102 |
| c1ccc(-c2n[nH]c3c2oc2ccccc23)cc1 | 87.3 |
| CC/C(=C(\c1ccccc1)c1ccc(OCCN(C)C)cc1)c1ccccc1 [Tamoxifen] | 123 |
| CC/C(=C(\c1ccccc1)c1ccc(OCCN(C)C)cc1)c1ccccc1 [Tamoxifen citrate] | 118 ± 4.6 |
| CCc1oc2ccccc2c1C(=O)c1cc(Br)c(O)c(Br)c1 [Benzbromarone] | 97.4 |
| c1ccc2oc(C3=NCCN3)cc2c1 [2-BFI hydrochloride] | 97.6 |
| NCc1ccc(S(N)(=O)=O)cc1 [Mafenide hydrochloride] | 102 |
| CN[C@@H]1[C@H](O[C@H]2[C@H](O[C@H]3[C@H](O)[C@@H](O)[C@H](NC(=N)N)[C@@H](O)[C@@H]3NC(=N)N)O[C@@H](C)[C@]2(O)CO)O[C@@H](CO)[C@H](O)[C@H]1O [Dihydrostreptomycin sulfate] | 99.7 |
| CCN(CCCOc1ccc2c(Nc3cc(CC(=O)Nc4cccc(F)c4)[nH]n3)ncnc2c1)CCOP(=O)(O)O [Barasertib (AZD1152-HQPA)] | 112 |
| Cc1ccccc1N=Nc1ccc(NC(=O)c2ccnn2C)c(C)c1 | 98.9 |

| SMILES | mean cytoplasmic OPP incorporation |
| --- | --- |
| O=c1[nH]nc(Sc2ncc([N+](=O)[O-])s2)n1-c1ccc2c(c1)OCCO2 | 39.7 ± 16 |
| NS(=O)(=O)c1cc2c(cc1Cl)NC(CC1CCCC1)NS2(=O)=O (stereo not drawn) [Cyclopenthiazide] | 103 |
| O=C(O)CCCCC1CCSS1 (racemic) [DL-?-Lipoic acid] | 117 |
| CC(C)(C)NCC(O)c1cc(O)cc(O)c1 (stereo not drawn) [Terbutaline hemisulfate] | 98.5 |
| CCOC(=O)[N-]c1c[n+](N2CCOCC2)no1 [Molsidomine] | 104 |
| CC[N+](CC)(CC)CCOc1cccc(OCC[N+](CC)(CC)CC)c1OCC[N+](CC)(CC)CC [Gallamine triethiodide] | 101 |
| C#C[C@]1(O)CC[C@H]2[C@@H]3CCC4=C(CCC(=O)C4)[C@H]3CC[C@@]21C [Norethynodrel] | 95.7 |
| C=C(c1ccc(C(=O)O)cc1)c1cc2c(cc1C)C(C)(C)CCC2(C)C [Bexarotene] | 107 |
| CC(C(=O)O)c1ccc(C(=O)c2cccs2)cc1 (stereo not drawn) [Suprofen] | 101 |
| CN1CCN(c2nc(C3=C(c4c[nH]c5ccccc45)C(=O)NC3=O)c3ccccc3n2)CC1 [Sotrastaurin (AEB071)] | 103 ± 1.1 |
| COc1cc2ncnc(Nc3ccc(F)c(Cl)c3)c2cc1OCCCN1CCOCC1 [Gefitinib] | 110 |
| COc1cc2ncnc(Nc3ccc(F)c(Cl)c3)c2cc1OCCCN1CCOCC1 [Gefitinib (Iressa)] | 109 |
| COc1cc2ncnc(Nc3ccc(F)c(Cl)c3)c2cc1OCCCN1CCOCC1 [Iressa] | 103 |
| CN1CCC[C@@H]1CCO[C@](C)(c1ccccc1)c1ccc(Cl)cc1 [Clemastine fumarate] | 107 ± 12 |
| CCOc1ccc(NC(C)=O)cc1 [Phenacetin] | 96.5 |
| [O-][S+](c1ccccc1)c1ccc2nnnn2n1 (stereo not drawn) | 92.2 |
| O=C(c1ccc(OCCCc2c[nH]cn2)cc1)C1CC1 [Ciproxifan] | 97.8 |
| CCN1CCC[C@H]1CNC(=O)c1c(O)c(Cl)cc(Cl)c1OC [Raclopride] | 102 ± 4.3 |
| NC(N)=NCCC[C@H](NC(=O)[C@@H]1CCCN1C(=O)[C@H](N)Cc1ccccc1)C(=O)CCl | 99.7 |
| COC(=O)[C@]12CCC(C)(C)C[C@H]1[C@H]1C(=O)C=C3[C@@]4(C)C=C(C#N)C(=O)C(C)(C)[C@@H]4CC[C@@]3(C)[C@]1(C)CC2 [Bardoxolone Methyl] | 25.6 |
| CCCCC[C@H](O)/C=C/[C@H]1[C@H](O)CC(=O)[C@@H]1CCCCCCC(=O)O [Alprostadil (Caverject)] | 108 |

| SMILES | mean cytoplasmic OPP incorporation |
| --- | --- |
| CCCCC[C@H](O)/C=C/[C@H]1[C@H](O)CC(=O)[C@@H]1CCCCCCC(=O)O [Alprostadil] | 105 ± 5.9 |
| O=C(O)c1cccnc1C(=O)O [Quinolinic acid] | 101 |
| CC1(C)CNc2cc(NC(=O)c3cccnc3NCc3ccncc3)ccc21 [Motesanib Diphosphate] | 111 |
| CC1(C)CCC(C)(C)c2cc(C(=O)Nc3ccc(C(=O)O)cc3)ccc21 | 105 and 99.6 |
| Oc1cc(O)c(Cl)cn1 [Gimeracil] | 96.1 |
| COC(=O)C1=C(C)NC(C)=C(C(=O)OCC(C)C)C1c1ccccc1[N+](=O)[O-] (stereo not drawn) [Nisoldipine] | 107 |
| COC(=O)C1=C(C)NC(C)=C(C(=O)OCC(C)C)C1c1ccccc1[N+](=O)[O-] (stereo not drawn) [Nisoldipine (Sular)] | 109 |
| CN1CCN(c2c(F)cc3c(=O)c(C(=O)O)cn4c3c2SCC4)CC1 [Rufloxacin] | 105 |
| CC(=O)N1CCN(C)CC1 [1-Acetyl-4-methylpiperazine hydrochloride] | 99.1 |
| COc1ccc(C2CC(c3ccccc3)=NN2c2ccc(S(N)(=O)=O)cc2)cc1 (stereo not drawn) | 102 |
| CCCC(=O)[O-].[Na+] [Sodium butyrate] | 115 |
| Cc1cc(Nc2cc(N3CCN(C)CC3)nc(/C=C/c3ccccc3)n2)n[nH]1 | 91.9 |
| COCCOc1ccc2c(c1)ncn2-c1ccc2cccc(N3CCC(N)CC3)c2n1 | 74.5 ± 17 |
| COC(=O)C1=C(C)NC(C)=C(C(=O)OCCN(C)Cc2ccccc2)C1c1cccc([N+](=O)[O-])c1 (stereo not drawn) [Nicardipine hydrochloride] | 115 |
| OC[C@H]1O[C@@H](c2ccc(Cl)c(Cc3ccc(O[C@H]4CCOC4)cc3)c2)[C@H](O)[C@@H](O)[C@@H]1O | 92.9 |
| CC(C)NCC(O)c1ccc(O)c(O)c1 (single isomer, unassigned; (-)) [(-)-Isoproterenol hydrochloride] | 111 |
| O=C1C(O)=C([C@H]2CC[C@H](c3ccc(Cl)cc3)CC2)C(=O)c2ccccc21 [Atovaquone] | 102 |
| Cc1ccc(/C=C2\CNC/C(=C\c3ccc(C)cc3)C2=O)cc1 | 93.2 |
| Cc1ccccc1C(OCCN(C)C)c1ccccc1 (stereo not drawn) [Orphenadrine hydrochloride] | 112 |
| CCOC(=O)C1=C(C)NC(C)=C(C(=O)OCC)C1 [Diludin] | 106 |
| CNCc1cc(-c2ccccc2F)n(S(=O)(=O)c2cccnc2)c1 | 106 |

| SMILES | mean cytoplasmic OPP incorporation |
| --- | --- |
| CCCCCCCCCCCC1=C(O)C(=O)C=C(O)C1=O [Embelin] | 104 |
| CN(C)CCOC(c1ccc(Cl)cc1)c1ccccn1 (stereo not drawn) [Carbinoxamine maleate salt] | 93 |
| CCCCCCCCCCCCCCCC(=O)C(F)(F)F | 93.7 |
| O=C1CCc2ccc(OCCCCN3CCN(c4cccc(Cl)c4Cl)CC3)cc2N1 [Aripiprazole] | 111 |
| Nc1nc2c(ccc3ccccc32)s1 | 91.2 |
| NC(=O)NC1NC(=O)NC1=O (stereo not drawn) [Allantoin] | 98.1 |
| CN(C)[C@@H]1C(O)=C(C(=O)NCNCCCC[C@H](N)C(=O)O)C(=O)[C@@]2(O)C(O)=C3C(=O)c4c(O)cccc4[C@@](C)(O)[C@H]3C[C@@H]12 [Lymecycline] | 100 |
| CCCCCOC(=O)Nc1nc(=O)n([C@@H]2O[C@H](C)[C@@H](O)[C@H]2O)cc1F [Capecitabine (Xeloda)] | 99.7 |
| CCN(CC)CCOc1ccc(C(=C(Cl)c2ccccc2)c2ccccc2)cc1 [Clomiphene citrate (Z,E)] | 135 |
| CCc1cc(-c2n[nH]c(C)c2-c2ccc3c(c2)OCCO3)c(O)cc1O | 95.9 ± 2.1 |
| CN1CCC(=C2c3ccccc3CCc3sccc32)CC1 [Pizotifen malate] | 116 |
| COc1ncc(-c2ccc3nccc(-c4ccnnc4)c3c2)cc1NS(=O)(=O)c1ccc(F)cc1F | 73.1 |
| CN1CCOC(c2ccccc2)c2ccccc2C1 (stereo not drawn) [Nefopam hydrochloride] | 105 |
| c1cc2c3c(c1)c1c(n3CCNC2)CCCC1 [WAY 629 hydrochloride] | 99.9 |
| Cc1cnc(C(=O)NCCc2ccc(S(=O)(=O)NC(=O)NC3CCCCC3)cc2)cn1 [Glipizide] | 102 ± 4.6 |
| CC(C)NC[C@H](O)COc1cccc2[nH]ccc12 [(S)-(-)-Pindolol] | 101 |
| O=C(Cc1ccccc1)Nc1nc2ccc(Cl)cc2c2nc(-c3ccco3)nn12 | 104 |
| CC(O)(P(=O)(O)O)P(=O)(O)O [Etidronate (Didronel)] | 106 |
| CC(O)(P(=O)(O)O)P(=O)(O)O [Etidronic acid, disodium salt] | 109 |
| Cc1ccc2c(=O)c3ccccc3n(CCCN)c2c1C | 78.5 |
